Experimental data as given in PubChem BioAssay AID485281 (National Center for Advancing Translational Sciences (NCATS), 2010).
Where “and” joins values, the source holds several entries; their conditions need not be identical. Identical values can stand only once. The campaign covered roughly 350,000 compounds. About 260 (0.074%) were called active. Inconclusive means that the source gave no clear call. Such entries were picked first, then a sample of the others. The call rests on the fitted dose curve; in most records, active means well fitted inhibition curve with a large enough effect; inconclusive means small, poorly fitted or top-dose-only effect; inactive means no such curve, though single readings can be large or run the other way. Where the call is inconclusive, the potency comes from a doubtful curve fit. Where a SMILES comes first, the peptide text is derived from it. [ ]: non-standard residue; d: D form. The star is where a group is joined. Fmoc = O=C(OCC1c2ccccc2-c2ccccc21)*; Cha = N[C@@H](CC1CCCCC1)C(=O)O; AMC = Cc1cc(=O)oc2cc(N*)ccc12

Molecular target: Ferritin light chain (Equus caballus) (UniProt P02791)
UniProt P02791, sequence (P02791 whole entry, looked up): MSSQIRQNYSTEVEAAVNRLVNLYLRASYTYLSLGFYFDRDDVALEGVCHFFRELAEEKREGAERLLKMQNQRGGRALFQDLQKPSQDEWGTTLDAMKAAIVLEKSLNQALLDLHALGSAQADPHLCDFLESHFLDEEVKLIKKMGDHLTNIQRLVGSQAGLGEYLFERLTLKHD
Assay: qHTS Assay for Identification of Novel General Anesthetics; further: nearly all actives have a fitted effect of over 20% in size
Conditions: apoferritin/1-aminoanthracene competitive binding, fluorescence; series mostly up to 77.5 µM
How it was run: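 10 uM apoferritin + 50% sat. 1-AMA, PBS; cpd 10 min RT; Ex380/Em535 endpoint; normalized to free probe vs complex; 4-param Hill fit; propofol titration as pos. ctrl.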
Potency means the concentration at half of the fitted maximal effect; tags describe the fitted curve by direction and shape.

| Compound | Potency |
| --- | --- |
| CCOC(=O)c1c(N)sc(C(O)(C(F)(F)F)C(F)(F)F)c1-c1ccc(Cl)cc1 | inconclusive: 7.08 µM [inhibitor, partial curve, poor fit] |
| C/C(=N\Nc1ccc(Cl)c(C(=O)O)c1)c1ccc[nH]1 | inactive |
| Cc1c(Cl)cccc1N1C(=O)CC(N(O)c2ccccc2)C1=O (stereo unspecified) | inconclusive: 35.5 µM [inhibitor, partial curve] |
| COC(=O)C1=C(C)NC(C)=C(C(=O)OC(C)C)C1c1cccc2nonc12 (stereo unspecified) | inconclusive: 31.6 µM [inhibitor, partial curve] |
| O=C(COc1ccccc1F)c1ccc(O)cc1O | inconclusive: 15.8 µM [inhibitor, partial curve] |
| O=C(/C=C/c1ccccc1)NC(=S)Nc1ccc(N2CCOCC2)cc1 | inconclusive: 35.5 µM [inhibitor, partial curve] |
| O=C(Cn1nc(-c2ccccc2)ccc1=O)NCc1ccc2c(c1)OCO2 | inconclusive: 7.94 µM [inhibitor, full curve] |
| CCOc1ccc2nc(SCC(=O)c3ccccc3)sc2c1 | inconclusive: 31.6 µM [inhibitor, partial curve] |
| Cc1ccc(SC(C)C(=O)Nc2ccc(S(=O)(=O)N3CCOCC3)cc2)cc1 (stereo unspecified) | inconclusive: 35.5 µM [inhibitor, partial curve] |
| CC(C)(C)NC(=O)NC(=O)COC(=O)c1c(F)cccc1Cl | inconclusive: 28.2 µM [inhibitor, single point] |
| O=C(Nc1ccc(F)cc1)c1sc2cc(C(F)(F)F)cnc2c1-c1cccs1 | inactive |
| O=C(c1ccc(Cl)c([N+](=O)[O-])c1)N1CCN(c2ccccc2)CC1 | inconclusive: 39.8 µM [inhibitor, single point] |
| Cc1ccc2c(c1)C1CCCC3C1N2CC(=O)N3Cc1ccccc1 (stereo unspecified) | inconclusive: 15.8 µM [inhibitor, partial curve] |
| Cc1ccc(Cl)cc1NS(=O)(=O)N1CCOCC1 | inconclusive: 22.4 µM [inhibitor, partial curve] |
| Cc1cccc(OCc2nnc(SCn3nnc4ccccc4c3=O)o2)c1 | inconclusive: 31.6 µM [inhibitor, partial curve] |
| O=C(CNC(=O)/C(=C\c1ccc(Br)cc1)NC(=O)c1ccccc1)OCc1ccccc1 | inactive |
| CCCc1cc(-c2n[nH]c(=S)n2C(C)c2ccccc2)cs1 (stereo unspecified) | inconclusive: 39.8 µM [inhibitor, single point] |
| Cc1cc(C(=O)COC(=O)C2=NNC(=O)CC2)c(C)n1-c1ccc(OC(F)F)cc1 | inconclusive: 44.7 µM [inhibitor, single point] |
| CN(C)CCCNC(=O)c1ccc(-c2nc(-c3ccc(Cl)cc3)cs2)cc1 | inconclusive: 20 µM [inhibitor, partial curve] |
| Cc1ccc(NC(=O)Nn2cnnc2)cc1Cl | inconclusive: 31.6 µM [inhibitor, single point] |
| CC(=O)c1ccccc1OCc1ccc(C(=O)c2ccccc2)cc1 | inconclusive: 39.8 µM [inhibitor, single point] |
| Cc1ccc(N2CCOCC2)c2c1C(=O)c1ccccc1C2=O | inconclusive: 17.8 µM [inhibitor, partial curve] |

| Compound | Potency |
| --- | --- |
| COc1cc(C2c3sc(=O)[nH]c3SC3C4CCC(C4)C23)ccc1O (stereo unspecified) | inconclusive: 22.4 µM [inhibitor, partial curve] |
| CCN(CC)S(=O)(=O)c1ccc(NC(=O)COC(=O)c2cnc(C)cn2)cc1 | inconclusive: 39.8 µM [inhibitor, partial curve] |
| CCN(CC)S(=O)(=O)c1ccc(C(=O)Nc2cccc(C)c2)cc1 | inconclusive: 28.2 µM [inhibitor, partial curve] |
| CC(NC(=O)Cn1nc(-c2ccccc2)ccc1=O)c1ccccc1 (stereo unspecified) | inconclusive: 11.2 µM [inhibitor, partial curve] |
| FC(F)(F)c1nc(N2CCCC2)ncc1-c1nnnn1-c1ccc(Cl)cc1 | inconclusive: 39.8 µM [inhibitor, partial curve] |
| Cc1ccccc1N1C(S)=C(C#N)C(=O)NC1c1cccs1 (stereo unspecified) | inconclusive: 50.1 µM [inhibitor, single point] |
| Cc1ccc(-n2ncc3c(NC4CCCCCC4)ncnc32)cc1Cl | inactive |
| CCSC1=NC(C)(C)C=C(/C=C/c2ccc(Cl)cc2Cl)N1 | inconclusive: 39.8 µM [inhibitor, single point] |
| Cc1nc(C)c(-c2ccc(SCC(=O)Nc3ccc(F)cc3F)nn2)s1 | inactive |
| COc1ccc(C2=NN(CC(=O)Nc3ccccc3C)C(=O)CC2)cc1 | inconclusive: 6.31 µM [inhibitor, full curve] |
| CCCCn1c(=O)[nH]c(=O)c2c1nc(-c1ccc(-c3ccccc3Br)o1)n2CCOC | inconclusive: 8.91 µM [inhibitor, partial curve] |
| Cc1ccc(-n2ncc(C(=O)NCc3ccco3)c2C2CCN(C(=O)OC(C)(C)C)CC2)c(C)c1 | inconclusive: 3.16 µM [inhibitor, full curve, poor fit] |
| Cc1csc(SCc2nnc(-c3ccccc3Br)o2)n1 | inconclusive: 31.6 µM [inhibitor, partial curve] |
| CC(=O)Nc1ccccc1-c1nnn(CC(=O)Nc2ccc3c(c2)OCCO3)n1 | inconclusive: 35.5 µM [inhibitor, partial curve] |
| O=C(Nc1nncs1)C12CC3CC(CC(C3)C1)C2 | inconclusive: 28.2 µM [inhibitor, partial curve] |
| Cc1c(Br)c(C(F)(F)F)nn1CC(=O)NCc1ccco1 | inconclusive: 31.6 µM [inhibitor, single point] |
| COc1ccc(S(=O)(=O)NCCC(C)C)cc1C | inconclusive: 28.2 µM [inhibitor, partial curve] |
| CC1(C)CC2(C)OC(=N)C1(C#N)C2(C#N)C#N (stereo unspecified) | inactive |
| CC1=Nc2ccccc2/C1=C/c1sc(=S)n(-c2cccc(C(=O)O)c2)c1O | inconclusive: 22.4 µM [inhibitor, partial curve] |
| CCC(=O)N(CCC(c1ccccc1)c1ccc2c(c1)OCO2)Cc1ccc(OC(C)C)cc1 (stereo unspecified) | inactive |
| Cc1cc(C)cc(NS(=O)(=O)c2ccc3c(c2)c(=O)n(C)c(=O)n3C)c1 | inconclusive: 28.2 µM [inhibitor, partial curve] |
| CCOC(=O)CSC1=C(C#N)C(c2ccccc2OCC)C(C(=O)OCC)C(=O)N1 (stereo unspecified) | inconclusive: 35.5 µM [inhibitor, partial curve] |

| Compound | Potency |
| --- | --- |
| CC1CCCN(C(=S)NCCc2ccccc2)C1 (stereo unspecified) | inactive |
| COc1cc(C=O)ccc1OCCOCCOc1c(C)cc(Cl)cc1Cl | inconclusive: 44.7 µM [inhibitor, partial curve, poor fit] |
| CC(=O)OCC[N+](C)(C)C | inactive |
| Cc1ccc(C(=O)Nc2ccccc2SCC2CSc3nc4ccccc4c(=O)n32)cc1 (stereo unspecified) | inconclusive: 28.2 µM [inhibitor, partial curve] |
| Cc1ccc(N2C(=O)[C@@H]3C(c4ccc(F)cc4)=NO[C@@H]3C2=O)cc1 | inconclusive: 22.4 µM [inhibitor, partial curve] |
| CC(C)CCNC(=O)CN1N=C(c2ccc(Cl)cc2)CCC1=O | inconclusive: 12.6 µM [inhibitor, partial curve] and inconclusive: 20 µM [inhibitor, partial curve] |
| Cc1cnc(=O)[nH]c1SCc1ccc(C(F)(F)F)cc1 | inconclusive: 31.6 µM [inhibitor, partial curve] |
| CC1CC(C)CN(C(=O)c2ccc(S(=O)(=O)N3CC(C)CC(C)C3)cc2)C1 (stereo unspecified) | inconclusive: 56.2 µM [inhibitor, single point] |
| CC#CCCCC(=O)Nc1cc(OC)nc(OC)n1 | inactive |
| CC(C)(C)CC(=O)Nc1cc2c3c(c1)CCC(=O)N3CCC2 | inconclusive: 39.8 µM [inhibitor, single point] |
| Cc1cc(NC(=O)COC(=O)CCC(=O)c2ccc(F)cc2)no1 | inconclusive: 25.1 µM [inhibitor, partial curve] |
| CC(C)NC(=O)CSCc1cccc(Br)c1 | inconclusive: 44.7 µM [inhibitor, single point] |
| O=C(O)CC(=O)Nc1cc(Cl)ccc1O | inactive |
| Cc1cc(C(=O)COc2ccccc2C(N)=O)c(C)n1C1CC1 | inconclusive: 12.6 µM [inhibitor, partial curve] |
| O=C(Nc1ccc(-c2cn3cccnc3n2)cc1)c1cc(Br)ccc1Cl | inactive |
| Cc1ccccc1C(=O)Nc1cccc(NC(=O)c2ccc(-c3ccc(Br)cc3)o2)c1 | inactive |
| Cc1cc(=O)oc2cc(NC(=O)[C@H](CCCCN)NC(=O)[C@H](CC3CCCCC3)NC(=O)OCC3c4ccccc4-c4ccccc43)ccc12 (Fmoc-[Cha]-Lys-{AMC}) | inconclusive: 22.4 µM [inhibitor, partial curve, poor fit] |
| CC(C)(C)c1ccc(C(=O)C=[N+]=[N-])cc1 | inconclusive: 25.1 µM [inhibitor, partial curve] |
| O=C1c2ccccc2C(=O)N1c1cccnc1 | inactive |
| CCN(CC)c1ccc(-c2nc(-c3ccccc3C)no2)cc1[N+](=O)[O-] | inconclusive: 35.5 µM [inhibitor, partial curve] |
| Cc1ccc(Cl)cc1N1CCN(Cc2nnc(-c3ccc4c(c3)OCO4)o2)CC1 | inactive |
| O=C1CCC(C(=O)OCC(=O)C23CC4CC(CC(C4)C2)C3)N1 (stereo unspecified) | inconclusive: 11.2 µM [inhibitor, partial curve] |
